Out of some 390,000 compounds screened, about 4,700 (1.2%) were called active. Inconclusive results, whose numbers are uncertain, are shown with a selection of clear calls. Calls come from the whole dose curve; as a rule, active = well fitted inhibition curve with a large enough effect; inconclusive = small, poorly fitted or top-dose-only effect, or another doubt; inactive = no such curve, though single readings can be large or run the other way. Where the call is inconclusive, the potency comes from a doubtful curve fit.
Target: DNA polymerase eta (Homo sapiens) (UniProt Q9Y253)
Sequence of UniProt Q9Y253 (Q9Y253 whole entry, looked up): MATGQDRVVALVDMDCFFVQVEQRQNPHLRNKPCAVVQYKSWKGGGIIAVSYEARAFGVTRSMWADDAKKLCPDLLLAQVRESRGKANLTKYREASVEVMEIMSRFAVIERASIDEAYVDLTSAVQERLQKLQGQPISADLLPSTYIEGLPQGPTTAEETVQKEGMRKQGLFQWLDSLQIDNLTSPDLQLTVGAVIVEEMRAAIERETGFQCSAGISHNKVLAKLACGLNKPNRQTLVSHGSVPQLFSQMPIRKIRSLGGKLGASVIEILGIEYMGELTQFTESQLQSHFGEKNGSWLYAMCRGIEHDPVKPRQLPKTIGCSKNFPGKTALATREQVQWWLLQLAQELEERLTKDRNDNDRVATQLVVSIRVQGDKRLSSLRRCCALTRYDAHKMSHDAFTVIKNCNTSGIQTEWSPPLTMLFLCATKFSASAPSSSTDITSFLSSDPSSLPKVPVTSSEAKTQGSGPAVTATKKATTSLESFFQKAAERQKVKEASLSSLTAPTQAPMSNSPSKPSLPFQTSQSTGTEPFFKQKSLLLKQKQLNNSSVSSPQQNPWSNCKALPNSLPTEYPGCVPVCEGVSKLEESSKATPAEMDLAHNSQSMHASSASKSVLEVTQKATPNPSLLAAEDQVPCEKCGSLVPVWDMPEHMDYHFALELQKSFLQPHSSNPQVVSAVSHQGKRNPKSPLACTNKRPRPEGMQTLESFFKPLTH
Assay: qHTS for Inhibitors of Polymerase Eta
Details: recombinant Pol eta, fluorescent DNA replication assay; series mostly up to 114 µM; activity change, negative = inhibition: at the top concentration
Method in brief: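 Fluorescent replication assay: 50 nM final substrate added after a 15 min room-temperature compound preincubation with 10 nM enzyme. Signal taken at 0 min and again at 10 min.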
% is set by controls: 0 for no effect and ±100 for the full control effect; potency is the fitted concentration of half-maximal effect; tags give direction and shape of the fitted curve.

Row | SMILES | Potency | activity change, negative = inhibition
1 | Nc1nc(CSC(=S)N2CCOCC2)nc(Nc2ccccc2)n1 | inconclusive: 100 µM [inhibitor, partial curve, poor fit] | 
2 | CCOc1ccc2nc(SCC(=O)c3ccc(Cl)s3)sc2c1 | inconclusive: 79.4 µM [inhibitor, single point] | 
3 | Cc1nnc(SCc2nc3sc(C(=O)O)c(C)c3c(=O)[nH]2)s1 | active: 22.4 µM | 
4 | CCCCC(=O)OCc1cc(=O)n2nc(C3CC3)sc2n1 |  | inactive: -24%
5 | O=C(O)CN1C(=O)/C(=C\c2cc([N+](=O)[O-])ccc2OCc2ccccc2Cl)SC1=S | active: 22.4 µM | 
6 | CCc1ccc(N(CC(=O)Nc2nc3ccc(C)cc3s2)S(=O)(=O)c2c(C)noc2C)cc1 | inconclusive: 50.1 µM [inhibitor, partial curve, poor fit] | 
7 | CCCCN(CC)CCCNC(=O)c1ccc2c(c1)N(Cc1ccc(C)cc1)C(=O)c1ccccc1S2 | inconclusive: 100 µM [inhibitor, partial curve, poor fit] | 
8 | COCCCN(Cc1cc(OC)c(OC)c(OC)c1)C(=S)Nc1cccc(Cl)c1 | inconclusive: 89.1 µM [inhibitor, partial curve, poor fit] | 
9 | COc1ccc(-c2cc3ccc(OCc4nn[nH]n4)cc3oc2=O)cc1OC | inconclusive: 12.6 µM [inhibitor, partial curve, poor fit] | 
10 | COc1cc(NC(=O)COCc2cc(-c3ccc4c(c3)OCO4)on2)c(OC)cc1Cl | inconclusive: 89.1 µM [inhibitor, partial curve, poor fit] | 
11 | O=C(CCCN1C(=O)/C(=C\c2ccco2)SC1=S)Nc1ccc2ccccc2c1 | inconclusive: 28.2 µM [inhibitor, partial curve] | 
12 | Cc1nnc(N2CCCC(C(=O)Nc3cc(F)ccc3F)C2)c2nn(-c3ccccc3)c(C)c12 (stereo not drawn) | inconclusive: 35.5 µM [inhibitor, partial curve, poor fit] | 
13 | COc1ccc(-c2nnn(CC(=O)N(Cc3ccco3)C(C(=O)NCC3CCCO3)c3ccco3)n2)cc1 (stereo not drawn) | inconclusive: 28.2 µM [inhibitor, partial curve, poor fit] | 
14 | CCn1nc(C(=O)Nc2ccc(S(=O)(=O)Nc3nccs3)cc2)c2ccccc2c1=O | inconclusive: 15.8 µM [inhibitor, partial curve, poor fit] | 
15 | COc1ccc2c(c1)c(=O)oc1cc(OCC(=O)NC3CCCCC3)ccc12 | active: 79.4 µM | 
16 | COc1cccc(CNC(=O)C2CCCN(c3nn4cc(-c5ccc(C)cc5)nc4s3)C2)c1 (stereo not drawn) |  | inactive: 2.11%
17 | O=c1c2sc3ccccc3c2n(Cc2cccc(Cl)c2)c(=O)n1Cc1ccc(F)cc1 | inconclusive: 112 µM [inhibitor, partial curve, poor fit] | 
18 | C=CCOc1ccc(/C=C2\SC(=S)N(NS(=O)(=O)c3ccc(C)cc3)C2=O)cc1 | active: 50.1 µM | 
19 | O=C(COC(=O)c1ccc(Cl)c(S(=O)(=O)N2CCOCC2)c1)Nc1ccc2[nH]c(=O)[nH]c2c1 | inconclusive: 15.8 µM [inhibitor, partial curve, poor fit] | 
20 | COc1ccc(OC)c(Nc2nc(NCCO)c3ccccc3n2)c1 | inconclusive: 50.1 µM [inhibitor, partial curve, poor fit] | 
21 | O=C(Nc1cccc(C(F)(F)F)c1)c1ccc2nc(-c3ccco3)c(-c3ccco3)nc2c1 | active: 8.91 µM | 

Row | SMILES | Potency | activity change, negative = inhibition
22 | CCC(=O)NC1=C(NC(C)c2ccccc2)C(=O)c2ccccc2C1=O (stereo not drawn) |  | inactive: -1.39%
23 | COc1ccccc1CNC(=O)COC(=O)c1cc(-c2ccco2)nc2ccccc12 | active: 14.1 µM | 
24 | O=C(Cn1ncc(Cl)c(Cl)c1=O)NC1CCS(=O)(=O)C1 (stereo not drawn) | inconclusive: 44.7 µM [inhibitor, partial curve] | 
25 | c1ccc(COc2ccccc2CNC23CC4CC(CC(C4)C2)C3)cc1 | inconclusive: 0.631 µM [inhibitor, partial curve, poor fit] | 
26 | O=C(CSc1nnnn1-c1ccc(F)cc1)c1ccc(O)c(O)c1 | inconclusive: 28.2 µM [inhibitor, single point] | 
27 | COc1cc(NS(=O)(=O)c2cc(Br)cc3c2N(C(C)=O)C(C)C3)cc(OC)c1 (stereo not drawn) |  | inactive: -10.9%
28 | Cc1nnc2ccc(-c3ccc(NC(=O)c4ccco4)cc3)nn12 | inconclusive: 20 µM [inhibitor, full curve] | 
29 | CCc1cccc(NC(=O)Cn2c(=O)n(CC3CCC(C(=O)NC)CC3)c(=O)c3sccc32)c1 (stereo not drawn) |  | inactive: -3.88%
30 | Cc1cc(NC(=O)c2cnn(-c3ccccc3)c2-n2cccc2)ccc1Br | inconclusive: 44.7 µM [inhibitor, partial curve, poor fit] | 
31 | CO/N=C(\C(=O)N[C@@H]1C(=O)N2C(C(=O)O)=C(CSc3nc(=O)c(O)nn3C)CSC12)c1csc(N)n1 (stereo partly drawn) | active: 11.2 µM | 
32 | CCOC(=O)C1=C(C)N=c2s/c(=C/c3ccco3)c(=O)n2C1c1cccc(OC)c1 (stereo not drawn) | inconclusive: 20 µM [inhibitor, partial curve, poor fit] | 
33 | O=C(/C=C/c1ccco1)Nc1ccc(C(=O)N2CCOCC2)cc1 | inconclusive: 15.8 µM [inhibitor, partial curve, poor fit] | 
34 | CCCSc1nc2sc3c(c2c(=O)n1-c1ccc(C)cc1)CCCC3 | inconclusive: 89.1 µM [inhibitor, partial curve, poor fit] | 
35 | N#Cc1c(SCC(=O)Nc2nncs2)sc2c(O)cc(=O)[nH]c12 | active: 7.08 µM | 
36 | C=CCn1c(SCC(=O)c2ccc(O)c(O)c2)nnc1-c1ccc(C)cc1 | inconclusive: 20 µM [inhibitor, full curve, poor fit] | 
37 | O=C(COC(=O)c1ccccc1)NCc1ccco1 | active: 12.6 µM | 
38 | COc1ccc(C(=O)NCC(=O)NCC(c2ccco2)N(C)C)cc1OC (stereo not drawn) | inconclusive: 39.8 µM [inhibitor, single point] | 
39 | CC(C)(C)OC(=O)[C@H](Cc1ccccc1)NC(=O)c1[nH]cnc1C(=O)Nc1ccc(Cl)cc1 | inconclusive: 50.1 µM [inhibitor, partial curve, poor fit] | 
40 | O=C(CN1c2cccc3cccc(c23)S1(=O)=O)Nc1cccc(S(=O)(=O)N2CCOCC2)c1 | inconclusive: 22.4 µM [inhibitor, partial curve, poor fit] | 
41 | COc1ccc(C(C)NC(=O)CN(c2cc(OC)ccc2OC)S(=O)(=O)c2ccccc2)cc1 (stereo not drawn) | inconclusive: 79.4 µM [inhibitor, partial curve] | 
42 | CC1=NN(c2nc(-c3ccc(C)cc3)cs2)C(=O)C1N=Nc1ccc(C(N)=O)cc1 (stereo not drawn) | inconclusive: 50.1 µM [inhibitor, partial curve] | 

Row | SMILES | Potency | activity change, negative = inhibition
43 | NS(=O)(=O)c1cccc(NC(=O)COC(=O)/C=C/c2ccco2)c1 | inconclusive: 15.8 µM [inhibitor, full curve] | 
44 | O=C(c1ccc(-n2cccc2)cc1)N1CCOCC1 |  | inactive: -11.5%
45 | COC(=O)[C@H](Cc1ccccc1)NC(=O)[C@@]1(C)C[C@@H]1[C@@H](NC(=O)OCc1ccccc1)c1ccccc1 | inconclusive: 100 µM [inhibitor, partial curve, poor fit] | 
46 | Cc1ccc2c(CC(=O)Nc3nnc(C(C)C)s3)coc2c1C |  | inactive: 0.448%
47 | COCCOC(=O)c1[nH]c2c(c1C)C(=O)CC(c1ccc(N(C)C)cc1)C2 (stereo not drawn) | inconclusive: 28.2 µM [inhibitor, single point] | 
48 | CCOC(=O)C1=C(C)N=C2c3ccccc3C(=O)C2C1c1ccc(C)cc1 (stereo not drawn) | inconclusive: 28.2 µM [inhibitor, partial curve, poor fit] | 
49 | COc1cc(/C=C2/SC(=S)N(Cc3ccccc3)C2=O)ccc1O | inconclusive: 35.5 µM [inhibitor, partial curve] | 
50 | Cc1ccc(C)c(S(=O)(=O)N2CCCOC2CNC(=O)C(=O)NCc2ccccc2)c1 (stereo not drawn) | inconclusive: 89.1 µM [inhibitor, partial curve, poor fit] | 
51 | O=[N+]([O-])c1cccc(-c2nc(NCc3ccccc3)c3ccccc3n2)c1 |  | inactive: -15.9%
52 | Cc1c(CCO)c(=O)n2n1CCCC2 |  | inactive: -19.7%
53 | COc1ccc2nc(N=Nc3ccc(O)c4ccccc34)sc2c1 | inconclusive: 10 µM [inhibitor, partial curve] | 
54 | NNC(=S)Nc1ccc(S(=O)(=O)N2CCCCC2)cc1 | inconclusive: 89.1 µM [inhibitor, partial curve] | 
55 | N#Cc1nc(NCC(F)F)nc(Nc2cc(F)cc(F)c2)n1 |  | inactive: -19.8%
56 | CCOC(=O)c1ccc(Oc2c(C)oc3cc(OS(C)(=O)=O)ccc3c2=O)cc1 | inconclusive: 70.8 µM [inhibitor, partial curve, poor fit] | 
57 | CCOc1cccc(-c2nn3c(-c4ccco4)nnc3s2)c1 | active: 20 µM | 
58 | Cc1ccc(CSc2nnc(SCC(=O)N/N=C/c3c[nH]c4ccccc34)s2)cc1 | inconclusive: 63.1 µM [inhibitor, partial curve, poor fit] | 
59 | CCN(CC)C(=O)c1sc2c(c1C)c(=O)n(-c1ccccc1)c(=O)n2CC(=O)N(CC)c1cccc(C)c1 |  | inactive: -18.3%
60 | Cc1cc(C(=O)NNS(=O)(=O)c2cc(C(=O)O)ccc2Cl)c(C)n1-c1ccccc1 | active: 22.4 µM | 
61 | COc1ccc(-c2ccc3sc4ccccc4c(=O)c3c2)cn1 | inconclusive: 35.5 µM [inhibitor, partial curve, poor fit] | 
62 | O=[N+]([O-])c1ccccc1-c1nc(-c2ccc(Br)o2)no1 | inconclusive: 31.6 µM [inhibitor, partial curve, poor fit] | 
63 | CN1CCN(S(=O)(=O)c2ccc(NC(=S)NC(=O)c3ccc(Cl)cc3)cc2)CC1 | inconclusive: 5.01 µM [inhibitor, full curve, poor fit] | 

Source: PubChem BioAssay AID588591 (National Center for Advancing Translational Sciences (NCATS), 2011)
